Laboratory results as given in the supplement of paper PMC4466236.
Whole data set: some 33,000 sequences, median “E-score (dimensionless, -0.5 to 0.5)” near -0.058, cut for the highest 2% near 0.35. This is one part of the list.

These sequences were tested on MvaT (assay: PBM 8-mer E-score (mean of HK and ME arrays) (E-score (dimensionless, -0.5 to 0.5)); higher = stronger relative binding preference; most listed sequences are background and not binding sites).
Procedure: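 Protein binding microarray: GST-tagged full-length MvaT (P. aeruginosa PAO1) bound to two universal double-stranded 60-mer arrays (ME and HK), each with a constant 25-mer primer and a variable 35-mer region covering all 8-mers. The 8-mer E-score (rank-based, range -0.5 to 0.5, >0.45 = specific binding) is the mean of the two arrays.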

Sequence | PBM 8-mer E-score
AGAATCGG | -0.0303
CAAGGCCC | -0.302
CGTACCTA | -0.178
CGCAAAAG | 0.0685
TATTGCAA | 0.222
CTAGAGAA | 0.000547
CTTAGAGA | -0.00481
GGAAGCAC | -0.165
AGGGGAAT | -0.166
CGACTCAC | -0.183
CATATCCC | -0.031
TAAATCCA | 0.188
ATACGTGG | 0.0295
GGTTTGAC | -0.00845
CGTAGAAG | 0.0195
CTCCGCAG | -0.285
CTTCATTC | -0.072
ATATCTGG | 0.0475
ACTACGAC | -0.111
CTGCCTTA | 0.0495
ATCGGATA | 0.062
CACATTGC | -0.157
GCATATAA | 0.374
CTCGCTCA | -0.119
CTGAGCTC | -0.258

Sequence | PBM 8-mer E-score
CGGGGAGA | -0.156
CCCTAAAG | -0.0478
CACCCTAC | 0.0047
CTGGCGCC | -0.149
CGTGATCC | 0.0119
AACTGGCT | 0.0131
AGGGCCCA | -0.304
ACCCATCA | -0.109
CGAAGGCC | -0.307
AGAGCGGG | -0.223
GAGTTGAA | -0.0242
AATAAATC | 0.319
CCTAATCC | -0.117
AAAAGGCG | 0.0079
GATAAGGC | 0.0444
AGTGAACT | 0.0493
GTCCCCTA | -0.167
CATACGAA | 0.049
CTTCCCGC | -0.212
ACTAAAGG | -0.0127
ATTCACAA | 0.281
CCCCTTCC | -0.388
CGCACGCG | -0.0545
GAATGGGC | -0.16
GGGGGCAC | -0.243

Sequence | PBM 8-mer E-score
GATCTGGC | -0.195
CAGAGCAC | -0.273
ATCCGATG | -0.0729
ATCGGTGG | 0.0386
GAGTTAGA | 0.129
AATAAAAA | 0.415
CGAAGTCG | -0.184
ACCATAGG | -0.0864
CGACGTCG | -0.22
GACAGAGA | -0.174
GATTATCA | 0.193
AGTTGGCG | -0.114
GATGGTAA | 0.0661
CATGGGAA | -0.0651
ATGTACGG | 0.0373
CTTGTGGA | -0.0828
AGGTAGCA | -0.0731
GGTAATAA | 0.335
AGCAATAT | 0.325
AGAGTCAA | -0.178
CTAATTAC | 0.322
CGAAGCCG | -0.203
ACATGCTA | 0.13
CGCGTTTA | 0.104
AAGGAGAC | -0.268

Sequence | PBM 8-mer E-score
GCCAGTTA | 0.254
GGCGGACA | -0.181
ACTCCCCG | -0.112
AATTGCCG | 0.186
GGTGACCA | -0.231
AGTCGTAT | -0.00527
CGACCCTA | -0.134
CTTAAATA | 0.337
CGGTACGA | -0.321
GGCTTGGA | -0.265
CCGATGCG | -0.262
GCGTATCC | -0.158
CAAGTGTG | 0.0854
AAGGGGCT | -0.311
GTGCTTGA | -0.144
CCCACGCG | -0.259
CGAACACG | -0.06
ACCCATTA | 0.241
CCTGAAAC | -0.156
CACTGATC | -0.0168
CGCCCTTA | -0.0607
CTTTACCC | 0.00381
AGGGTGAA | -0.106
CATATTCA | 0.184
CGGCATGA | -0.248

Sequence | PBM 8-mer E-score
GGAGACCA | -0.0754
CTGCGTGC | -0.308
CCCTGCTC | -0.198
CCGGACGG | -0.221
CTCTAGGC | -0.162
AGAAGGGA | -0.0381
GGAGGTTA | -0.113
ACGGCCGC | -0.224
GGAAGGGA | -0.276
CGGTCAGC | -0.323
AAATTAGC | 0.23
CACCTCCC | -0.334
GTATATCA | 0.237
GCCGAGCA | -0.256
AAAGAGGA | -0.0832
AAACAACT | 0.328
ATACTGTA | 0.287
CATTTGCC | -0.052
GACGTCTA | 0.0716
ACAACCGG | -0.0213
TTCTGAAA | 0.14
CACTTCAA | 0.0793
AATGATAC | 0.0724
CGAGTACC | -0.158
AGGCGCAC | -0.179

Sequence | PBM 8-mer E-score
TGGCTGAA | 0.0109
AGGCCGAG | -0.0711
CAGATCGA | 0.0341
ATGTCGGG | -0.115
AATCACGT | 0.0312
CGCTAGCA | -0.177
AACACTAA | 0.319
AACAACTG | 0.0526
GGAAATGA | 0.096
GATAAGGA | -0.0851
CCATCTAA | 0.0494
GGAATCAC | -0.0985
AGAGCACG | -0.266
GCACGAAC | -0.27
CGCGTTAC | -0.182
GACCTAGA | -0.221
CATAACGG | 0.0102
GTTAAAAC | 0.242
TTCTAAAA | 0.189
GCGTGCAC | -0.152
ATAATGCC | 0.172
TACTCTGA | -0.066
CATTTCCC | -0.0609
CGTCCTAA | 0.0287
GCTTTCCA | -0.232

Sequence | PBM 8-mer E-score
GGTTTTCA | 0.129
ATGTCTAC | -0.0704
AAAAAACT | 0.186
GATACATC | 0.0809
ATGTTGGA | 0.125
CCTACTCG | -0.205
CATAAACC | 0.0441
AGGTATGG | -0.222
AAGATGCC | -0.178
CTCCAAAG | -0.19
AGGGGAAC | -0.0966
ACTTTAGC | 0.109
GTCCGTTA | -0.0835
ACCTTGTG | -0.214
ATAACAAA | 0.336
ACAACTTA | 0.357
AGACAGGG | -0.18
GAAGGGCA | -0.275
CAGTCACC | -0.276
AAAATACA | 0.25
CGAATAGC | 0.0298
ACGGGTCT | -0.295
